Among the test systems are HCC-1143; HCC-1187; MDA-468; SUM-149.
Holding throughout (assay): cell viability relative to vehicle (% of vehicle); basal-like triple-negative breast cancer lines; higher = less cytotoxic
Common to all, as to settings: 10 µM; 72 h

This is one part of the list. Many values rest on one well or one pass, so single values are uncertain.
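Also: stably firefly luciferase-GFP labeled cells in 96-well plates, viability read as luciferase photon flux after d-luciferin addition, treated wells normalized to vehicle wells, single-dose high-throughput screen.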

In the case of `OC[C@@H](O)[C@@H](O)[C@H](O)[C@@H](O)CO` [D-Sorbitol], the cell viability stood at 69.6 in the assay with HCC-1143, 87.5 with HCC-1187, 118 in the assay on MDA-468 and 99 with SUM-149.

`CC(C)(C)NC(=O)C1CC2CCCCC2CN1CC(O)C(Cc1ccccc1)NC(=O)C(CC(N)=O)NC(=O)c1ccc2ccccc2n1.CS(=O)(=O)O` (centres undefined) [Saquinavir mesylate]: the cell viability in the assay on HCC-1143 worked out at 103; in the assay with HCC-1187, 93.4; in the assay on MDA-468, 96.8; in the assay with SUM-149, 123.

On to `N#CC(c1ccc(Cl)cc1)c1c(Cl)cc(-n2ncc(=O)[nH]c2=O)cc1Cl` (centres undefined) [Diclazuril], for which the cell viability is 77.9 in the assay on HCC-1143, 86.8 in the assay with HCC-1187, 130 in the assay with MDA-468 and 133 in the assay on SUM-149.

In the case of `CCCC1CC(C(=O)NC(C(C)Cl)C2OC(SC)C(O)C(O)C2O)N(C)C1.Cl` (centres undefined) [Clindamycin HCl], the cell viability turned out to be 74.4 in the assay with HCC-1143, 80.5 with HCC-1187, 114 in the assay with MDA-468 and 135 in the assay on SUM-149.

For `CN(C)CCOC(C)(c1ccccc1)c1ccccn1.O=C(O)CCC(=O)O` (centres undefined) [Doxylamine Succinate], the cell viability with HCC-1143 is 78.3; with HCC-1187, 103; with MDA-468 it was 111; with SUM-149, 106.

As for `CSc1ccc2c(c1)N(CCC1CCCCN1C)c1ccccc1S2.Cl` (centres undefined) [Thioridazine HCl], the cell viability in the assay with HCC-1143 is 89.1; with HCC-1187 it was 102; in the assay on MDA-468, 105; in the assay on SUM-149 it was 68.7.

Turning to `c1cn2cc(-c3ccc4cn[nH]c4c3)nc(Nc3ccc(N4CCOCC4)cc3)c2n1`, the cell viability turned out to be 35.1 with HCC-1143, 35.6 in the assay on HCC-1187, 41.8 with MDA-468 and 39.8 with SUM-149.

Take `O=C(O)C=Cc1ccccc1` [Cinnamic acid]: the cell viability in the assay on HCC-1143 amounted to 105; in the assay with HCC-1187, 101; in the assay with MDA-468, 128; with SUM-149, 108.

Regarding `CCCC1CC(C(=O)NC(C(C)Cl)C2OC(SC)C(O)C(O)C2O)N(C)C1` (centres undefined) [Clindamycin], the cell viability in the assay on HCC-1143 turned out to be 64.6; with HCC-1187, 97.1; in the assay on MDA-468 it was 109; with SUM-149, 89.7.

In the case of `CC(C)(C)C(=O)C(Oc1ccc(Cl)cc1)n1ccnc1` (centres undefined) [Climbazole], the cell viability with HCC-1143 was 79.8; with HCC-1187 it was 97.1; in the assay with MDA-468, 113; in the assay with SUM-149 it was 111.

Regarding `CC1(C)CCC(CN2CCN(c3ccc(C(=O)NS(=O)(=O)c4ccc(NCC5CCOCC5)c([N+](=O)[O-])c4)c(Oc4cnc5[nH]ccc5c4)c3)CC2)=C(c2ccc(Cl)cc2)C1`, the cell viability is 61.3 in the assay on HCC-1143, 59.7 in the assay on HCC-1187, 93.3 with MDA-468 and 58.4 in the assay with SUM-149.

On to `CC1CNCCCN1S(=O)(=O)c1cccc2cncc(F)c12.Cl.O.O` (centres undefined), for which the cell viability is 74.7 in the assay on HCC-1143, 79.5 in the assay with HCC-1187, 90.9 in the assay on MDA-468 and 66.2 with SUM-149.

For the compound `CN(C)Cc1c(C(=O)NCCOc2ccc(C(=O)NO)cc2)oc2ccccc12`, the cell viability in the assay with HCC-1143 was 48.5; in the assay on HCC-1187 it was 40.1; in the assay with MDA-468, 70.4; in the assay with SUM-149, 6.09.

As to `CNCCC(Oc1ccc(C(F)(F)F)cc1)c1ccccc1.Cl` (centres undefined) [Fluoxetine HCl], the cell viability in the assay with HCC-1143 was 83.6; in the assay on HCC-1187, 74.2; in the assay on MDA-468, 71.5; with SUM-149, 70.

For `COc1cccc(-c2ccc(NC(=O)C3=C(C(=O)O)CCC3)c(F)c2)c1` [Vidofludimus], the cell viability was 107 in the assay on HCC-1143, 60.4 in the assay with HCC-1187, 150 in the assay with MDA-468 and 116 with SUM-149.

`CCc1c(Cl)c(O)c(Cl)c(O)c1C(=O)OC1C(C)OC(OCC2=CC=CCC(O)C(C)=CC(CC)C(OC3OC(C)(C)C(OC(=O)C(C)C)C(O)C3O)C(C)=CC(C)=CCC(C(C)O)OC2=O)C(OC)C1O` (centres undefined) [Fidaxomicin]: the cell viability in the assay with HCC-1143 is 70.4; in the assay with HCC-1187, 103; in the assay on MDA-468, 94.5; in the assay on SUM-149, 110.

Take `O=C(O)c1cc(O)c(O)c(O)c1` [Gallic acid]: the cell viability came out at 70.6 in the assay on HCC-1143, 81.7 in the assay with HCC-1187, 100 with MDA-468 and 84.9 in the assay with SUM-149.

Regarding `Cl.Fc1ccc(C2CCNCC2COc2ccc3c(c2)OCO3)cc1` (centres undefined) [Paroxetine HCl], the cell viability with HCC-1143 stood at 64.3; with HCC-1187, 46.5; with MDA-468, 49.5; in the assay with SUM-149, 41.1.

For `NC(=O)c1cccnc1` [Nicotinamide], the cell viability is 70 in the assay on HCC-1143, 69.8 in the assay with HCC-1187, 111 with MDA-468 and 111 in the assay with SUM-149.

As to `CC(C)OC(=O)C(C(=O)OC(C)C)=C1SC=CS1` [Malotilate], the cell viability with HCC-1143 was determined as 80.6; in the assay on HCC-1187 it was 82.4; in the assay with MDA-468, 81; in the assay with SUM-149 it was 90.7.

Regarding `CCCCOc1ccc(CC(=O)NO)cc1` [Bufexamac], the cell viability with HCC-1143 stood at 119; with HCC-1187, 86.4; in the assay on MDA-468, 123; in the assay with SUM-149, 144.

With `Nc1nc(NC2CC2)c2ncn(C3C=CC(CO)C3)c2n1.O=S(=O)(O)O` (centres undefined) [Abacavir sulfate], the cell viability amounted to 84.7 with HCC-1143, 75.9 with HCC-1187, 87.6 in the assay on MDA-468 and 83.3 in the assay on SUM-149.

For the compound `COc1ccc2cc1Oc1ccc(cc1)CC1c3c(cc4c(c3Oc3cc5c(cc3OC)CCN(C)C5C2)OCO4)CCN1C` (centres undefined) [Cepharanthine], the cell viability was 83.9 in the assay with HCC-1143, 49.3 with HCC-1187, 25.7 in the assay on MDA-468 and 37.4 in the assay with SUM-149.

As to `O=C1CCCC(=O)C1C(=O)c1ccc(C(F)(F)F)cc1[N+](=O)[O-]` [Nitisinone], the cell viability is 101 in the assay with HCC-1143, 99.2 in the assay on HCC-1187, 113 in the assay on MDA-468 and 115 with SUM-149.

In the case of `CCCCc1oc2ccccc2c1C(=O)c1cc(I)c(OCCN(CC)CC)c(I)c1.Cl` [Amiodarone HCl], the cell viability came to 84.2 in the assay on HCC-1143, 88.2 with HCC-1187, 98.4 with MDA-468 and 121 with SUM-149.

With `CC(=Cc1ccccc1)C=C1SC(=S)N(CC(=O)O)C1=O` [Epalrestat], the cell viability stood at 117 in the assay with HCC-1143, 112 with HCC-1187, 162 in the assay on MDA-468 and 123 in the assay with SUM-149.

The values above are taken from the supplement of paper PMC8512760.
